Measurements from PubChem BioAssay AID624417 (National Center for Advancing Translational Sciences (NCATS), 2012).
Values joined by “and” are separate entries in the source; they are usually repeats but may differ in a detail not shown here. Equal values may be shown once. Among all 410,000 compounds or so, about 6,400 (1.6%) were called active. Inconclusive means that the source gave no clear call. Such entries were picked first, then a sample of the others. The call rests on the fitted dose curve; in most records, active means well fitted inhibition curve with a large enough effect; inconclusive means small, poorly fitted or top-dose-only effect; inactive means no such curve, though single readings can be large or run the other way. Potencies beside an inconclusive call are fits to weak or partial responses and may not hold up.

The compounds below were run against Glucagon-like peptide 1 receptor (Homo sapiens) (UniProt P43220) (assay: qHTS of GLP-1 Receptor Inverse Agonists (Inhibition Mode)). Settings: HEK293 GLP-1R CRE-luciferase, luminescence, 24 h, GLP-1R form is constitutively active; series mostly up to 38.3 µM.
UniProt P43220, sequence (P43220 whole entry, looked up): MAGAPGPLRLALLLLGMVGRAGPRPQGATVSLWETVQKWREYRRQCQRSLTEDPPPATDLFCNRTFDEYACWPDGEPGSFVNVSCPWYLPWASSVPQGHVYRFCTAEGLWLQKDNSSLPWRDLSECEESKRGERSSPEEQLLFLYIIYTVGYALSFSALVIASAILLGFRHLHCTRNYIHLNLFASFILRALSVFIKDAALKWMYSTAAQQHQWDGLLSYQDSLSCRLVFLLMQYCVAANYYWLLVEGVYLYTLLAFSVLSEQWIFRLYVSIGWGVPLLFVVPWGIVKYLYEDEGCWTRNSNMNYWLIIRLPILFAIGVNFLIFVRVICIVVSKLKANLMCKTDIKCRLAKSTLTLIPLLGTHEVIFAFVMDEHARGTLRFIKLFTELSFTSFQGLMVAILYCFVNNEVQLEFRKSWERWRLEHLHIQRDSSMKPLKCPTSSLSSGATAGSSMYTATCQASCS
Method in brief: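 Inverse agonism was detected as reduced cAMP-driven luciferase luminescence after 24 h compound treatment. The cells were HEK293 clones expressing constitutively active human GLP-1R with the reporter. Reporter-only and GPR119 cell lines served as counterscreen controls.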
Further: nearly all actives have a fitted effect of over 55% in size.
Potency means the concentration at half of the fitted maximal effect; tags describe the fitted curve by direction and shape.

**Q.** Which Potency does the source give for CCOc1ccc(NC(=O)CN(Cc2ccccc2)S(=O)(=O)c2ccc3nc(C)sc3c2)cc1 here?
**A.** Its Potency is inconclusive: 31.6 µM [inhibitor, single point].

**Q.** For CCOc1ccc(CCNC(=O)Cn2c(-c3cccs3)cc3ccccc32)cc1, which Potency is on record?
**A.** Its Potency is “inactive”.

**Q.** How did the Potency turn out when O=C(NCC1CCCO1)c1cccc(Oc2ccc([N+](=O)[O-])cc2)c1 (stereo not drawn) was run?
**A.** Its Potency is inconclusive: 10 µM [inhibitor, single point].

**Q.** For Cn1cc(S(=O)(=O)N2CCc3ccccc32)cc1C(=O)Nc1ccc(Cl)cc1, which Potency is on record?
**A.** The Potency was inconclusive: 3.98 µM [inhibitor, full curve, poor fit].

**Q.** Which Potency does the source give for COc1ccc(C(=O)NCC(=O)N/N=C/c2ccc(C)o2)cc1OC here?
**A.** Its Potency is “inactive”.

**Q.** CCC(C)S(=O)(=O)c1oc(-c2cccs2)nc1S(=O)(=O)c1ccccc1 (stereo not drawn) was tested. Which Potency did it give?
**A.** Its Potency is inconclusive: 14.1 µM [inhibitor, partial curve, poor fit].

**Q.** COc1cn(CC(=O)Nc2cc(C)cc(C)c2)c(CN2CCCCC2)cc1=O was tested. Which Potency did it give?
**A.** The Potency was “inactive”.

**Q.** For COc1ccc(-c2cc(C(F)(F)F)nc(N3CCCCC3)n2)cc1OC, which Potency is on record?
**A.** The Potency was “inactive”.

**Q.** CCc1cc(C(=O)NNC(=O)CCN2CCN(c3ccccc3)CC2)sc1C was tested. Which Potency did it give?
**A.** The Potency was inconclusive: 10 µM [inhibitor, partial curve, poor fit].

**Q.** How did the Potency turn out when COc1cccc(-c2nnc(SCC(=O)N(C)C3CCCCC3)o2)c1 was run?
**A.** Its Potency is inconclusive: 10 µM [inhibitor, partial curve, poor fit].

**Q.** For C=CCC[C@@H](Cc1ccc(F)cc1)C(=O)OC[C@@H](C)NC(=O)[C@H](CC=C)CC(=O)N(CCO)Cc1ccccc1, which Potency is on record?
**A.** Its Potency is inconclusive: 8.91 µM [inhibitor, partial curve, poor fit].

**Q.** For COc1cc(SC#N)ccc1N=Cc1c(C)[nH]n(-c2ccc(C)c(C)c2)c1=O, which Potency is on record?
**A.** The Potency was inconclusive: 6.31 µM [inhibitor, partial curve, poor fit].

**Q.** Which Potency does the source give for Cc1cccc(N2CCN(C(=O)C3CCN(C(=O)c4cc5sccc5n4C)CC3)CC2C)c1 (stereo not drawn) here?
**A.** Its Potency is inconclusive: 11.2 µM [inhibitor, partial curve, poor fit].

**Q.** With CCOc1ccc2nc(Cl)c(C3CC(c4ccc(C)cc4)=NN3C(=O)CCC(=O)O)cc2c1 (stereo not drawn) as the compound, how does the Potency read?
**A.** The Potency was “inactive”.

**Q.** For CC(C)Oc1ccc(CN2CCCC(CO)(Cc3ccccc3)C2)cc1CO (stereo not drawn), which Potency is on record?
**A.** Its Potency is inconclusive: 28.2 µM [inhibitor, single point].

**Q.** For O=C(Nc1ccc(F)cc1F)NC1CCCCCCC1, which Potency is on record?
**A.** Its Potency is inconclusive: 12.6 µM [inhibitor, partial curve, poor fit].

**Q.** How did the Potency turn out when Clc1cccc(CNc2nc(-c3cccnc3)nc3ccccc23)c1 was run?
**A.** The Potency was inconclusive: 10 µM [inhibitor, partial curve, poor fit].

**Q.** Which Potency does the source give for O=C(N/N=C/c1ccc2c(c1)OCO2)c1ccc(COc2cccc3cccnc23)cc1 here?
**A.** The Potency was inconclusive: 7.94 µM [inhibitor, partial curve, poor fit].

**Q.** For CCCC1=NN(C(=O)CCc2ccccc2O)C(O)(C(F)(F)F)C1 (stereo not drawn), which Potency is on record?
**A.** The Potency was inconclusive: 5.62 µM [inhibitor, partial curve, poor fit].

**Q.** With O=[N+]([O-])C(/C=C(\Cl)[N+](=O)[O-])=C1N(Cc2ccc(Cl)nc2)CCN1Cc1ccc(Cl)nc1 as the compound, how does the Potency read?
**A.** The Potency was “inactive”.

**Q.** Which Potency does the source give for CCOc1ccc(-c2cnc3n2CCCCC3)cc1 here?
**A.** The Potency was inconclusive: 8.91 µM [inhibitor, partial curve, poor fit].

**Q.** With O=C(Nc1cc(Cl)cc(Cl)c1)c1cc(S(=O)(=O)NC2CCCC2)ccc1F as the compound, how does the Potency read?
**A.** Its Potency is inconclusive: 10 µM [inhibitor, partial curve, poor fit].

**Q.** For CN1C(C(=O)Nc2cccc(O)c2)=CC(c2cccs2)=NS1(=O)=O, which Potency is on record?
**A.** Its Potency is “inactive”.

**Q.** COc1ccc(C(=O)c2cn(Cc3ccccc3)c3ccccc3c2=O)cc1OC was tested. Which Potency did it give?
**A.** The Potency was “inactive”.

**Q.** C=CCc1ccc(OCCn2cccc2C=O)c(OC)c1 was tested. Which Potency did it give?
**A.** The Potency was “inactive”.

**Q.** Which Potency does the source give for O=C(NCCc1nc2ccccc2n1Cc1ccccc1F)c1ccc(F)cc1 here?
**A.** The Potency was “inactive”.

**Q.** Which Potency does the source give for Cc1ccc(NC(=O)CCc2nnc3ccc(N4CCC(C)CC4)nn23)nc1 here?
**A.** Its Potency is “inactive”.

**Q.** Which Potency does the source give for Cc1c(C(=O)N(Cc2ccc(Cl)cc2)C2CCS(=O)(=O)C2)oc2ccccc12 (stereo not drawn) here?
**A.** The Potency was inconclusive: 10 µM [inhibitor, partial curve, poor fit].

**Q.** With Cc1cccc(NC(=O)c2ccc(F)c(S(=O)(=O)NCc3ccco3)c2)c1 as the compound, how does the Potency read?
**A.** Its Potency is inconclusive: 31.6 µM [inhibitor, single point].

**Q.** How did the Potency turn out when O=C(CSc1cccc2cccc(Cl)c12)NCc1cccs1 was run?
**A.** Its Potency is inconclusive: 31.6 µM [inhibitor, single point].

**Q.** Which Potency does the source give for CCCCCc1cc(=O)oc2c(C(CCN(CC)CC)c3ccc(OC)cc3)c(OC)cc(OC)c12 (stereo not drawn) here?
**A.** Its Potency is inconclusive: 15.8 µM [inhibitor, partial curve, poor fit].

**Q.** With CCCn1c(C2CCCN2c2nc(-c3ccc(C)cc3)cs2)nc2cc(Cl)c(N3CCCCC3)cc21 (stereo not drawn) as the compound, how does the Potency read?
**A.** Its Potency is inconclusive: 10 µM [inhibitor, single point].

**Q.** With COC(=O)N/N=C/c1cn(Cc2ccc(F)cc2)c2ccccc12 as the compound, how does the Potency read?
**A.** Its Potency is active: 7.94 µM.

**Q.** Which Potency does the source give for O=[N+]([O-])c1ccccc1CNc1ccc(F)c(Cl)c1 here?
**A.** Its Potency is inconclusive: 28.2 µM [inhibitor, single point].

**Q.** COc1ccc(N(C(=O)c2ccccc2C)S(=O)(=O)c2ccc(Cl)cc2)cc1 was tested. Which Potency did it give?
**A.** Its Potency is inconclusive: 12.6 µM [inhibitor, single point].

**Q.** Which Potency does the source give for COc1cc(S(=O)(=O)NCCc2c(C)[nH]c3ccc(C)cc23)ccc1Br here?
**A.** The Potency was active: 10 µM.

**Q.** Which Potency does the source give for Nc1ncc(S(=O)(=O)NCc2ccccc2)cn1 here?
**A.** Its Potency is “inactive”.

**Q.** How did the Potency turn out when COc1ccc(Br)c(OC)c1C(=O)NC(=O)Nc1c(F)cccc1F was run?
**A.** Its Potency is inconclusive: 14.1 µM [inhibitor, partial curve, poor fit].

**Q.** Which Potency does the source give for COc1ccc(CNc2nc3ccccc3n2C)c(O)c1 here?
**A.** The Potency was “inactive”.

**Q.** O=C(CCNS(=O)(=O)c1ccccc1C(F)(F)F)NCC(c1ccco1)N1CCCCC1 (stereo not drawn) was tested. Which Potency did it give?
**A.** The Potency was inconclusive: 10 µM [inhibitor, single point].

**Q.** How did the Potency turn out when Cc1onc(-c2ccccc2Cl)c1C(=O)N/N=C(\N)COc1ccc(Cl)cc1 was run?
**A.** Its Potency is inconclusive: 12.6 µM [inhibitor, single point].

**Q.** For O=C(NCCc1cccs1)C12CN(Cc3ccccc3)CC1C(c1cccc([N+](=O)[O-])c1)=NO2 (stereo not drawn), which Potency is on record?
**A.** The Potency was inconclusive: 10 µM [inhibitor, partial curve, poor fit].

**Q.** Which Potency does the source give for Cc1ccc(OC(C)C(=O)Nc2ccncc2)cc1C (stereo not drawn) here?
**A.** Its Potency is “inactive”.

**Q.** Which Potency does the source give for O=C(Nc1cc(-c2ccccc2)nn1C1CCCCC1)c1ccc(Cl)cc1 here?
**A.** Its Potency is active: 10 µM.

**Q.** Which Potency does the source give for Cc1ccc(NC(=O)Cn2nc(-c3ccco3)ccc2=O)cc1Cl here?
**A.** Its Potency is inconclusive: 5.01 µM [inhibitor, partial curve, poor fit].

**Q.** CCOC(=O)c1cnc(-c2ccccc2)nc1Oc1ccccc1 was tested. Which Potency did it give?
**A.** Its Potency is inconclusive: 28.2 µM [inhibitor, single point].

**Q.** Which Potency does the source give for CC(C)(C)OC(=O)NCCCC[C@H](NC(=O)c1nc[nH]c1C(=O)NCC(=O)OCc1ccccc1)C(=O)OC(C)(C)C here?
**A.** Its Potency is inconclusive: 28.2 µM [inhibitor, single point].

**Q.** For C/C(=N\Nc1ccc([N+](=O)[O-])cc1)c1ccc(-n2nncc2C)cc1, which Potency is on record?
**A.** Its Potency is inconclusive: 20 µM [inhibitor, single point].

**Q.** COc1cc(F)ccc1-c1cc(C(=O)NCc2cccc(Cl)c2)[nH]n1 was tested. Which Potency did it give?
**A.** The Potency was inconclusive: 28.2 µM [inhibitor, single point].

**Q.** How did the Potency turn out when COc1ccc(-c2nn(-c3ccccc3)cc2/C=N/n2cnnc2)cc1OC was run?
**A.** Its Potency is “inactive”.

**Q.** With c1ccc(-c2noc(-c3cccc4ccccc34)n2)nc1 as the compound, how does the Potency read?
**A.** The Potency was inconclusive: 31.6 µM [inhibitor, single point].

**Q.** Nc1nc(CSC(=S)N2CCN(c3ccccc3)CC2)nc(Nc2ccc(F)cc2)n1 was tested. Which Potency did it give?
**A.** The Potency was inconclusive: 7.94 µM [inhibitor, partial curve, poor fit].

**Q.** For N#Cc1ccc(-n2c(-c3ccccc3)nnc2-c2ccccc2)cc1C#N, which Potency is on record?
**A.** The Potency was inconclusive: 10 µM [inhibitor, partial curve].

**Q.** How did the Potency turn out when CC1(C)CC(=O)C/C(=N/NC(=O)CCCOc2ccc(Cl)cc2Cl)C1 was run?
**A.** Its Potency is inconclusive: 28.2 µM [inhibitor, single point].

**Q.** For CCOc1ccccc1NC(=O)COC(=O)CC(C)(C)CC1=NS(=O)(=O)c2ccccc2N1, which Potency is on record?
**A.** Its Potency is inconclusive: 10 µM [inhibitor, partial curve, poor fit] and inconclusive: 8.91 µM [inhibitor, partial curve, poor fit].

**Q.** With COc1ccc(CCN2C(=O)c3[nH]nc(-c4ccccc4O)c3C2c2cccc(O)c2)cc1OC (stereo not drawn) as the compound, how does the Potency read?
**A.** Its Potency is inconclusive: 28.2 µM [inhibitor, single point].

**Q.** COCn1c(COc2ccc3ccccc3c2)nc2ccccc21 was tested. Which Potency did it give?
**A.** Its Potency is inconclusive: 11.2 µM [inhibitor, single point].

**Q.** Which Potency does the source give for COc1cc(C(=O)OC2CCCCC2=O)cc(OC)c1C (stereo not drawn) here?
**A.** Its Potency is inconclusive: 28.2 µM [inhibitor, single point].

**Q.** Nc1nonc1-n1nnc(C(=O)N/N=C/c2cccc(F)c2)c1-c1ccc2c(c1)OCO2 was tested. Which Potency did it give?
**A.** Its Potency is inconclusive: 12.6 µM [inhibitor, single point].

**Q.** Which Potency does the source give for COC(=O)CC1(C(=O)OC)Oc2ccc(Br)cc2C(=O)N1c1cc(Cl)cc(Cl)c1 (stereo not drawn) here?
**A.** The Potency was inconclusive: 10 µM [inhibitor, partial curve, poor fit].

**Q.** Which Potency does the source give for O=Cc1ccc(-c2cc(Cl)ccc2Cl)[nH]1 here?
**A.** The Potency was inconclusive: 22.4 µM [inhibitor, partial curve, poor fit].

**Q.** Which Potency does the source give for COc1cccc(-n2c(SCc3cccc(C)c3)nc3c([nH]c4ccccc43)c2=O)c1 here?
**A.** The Potency was inconclusive: 10 µM [inhibitor, partial curve, poor fit].

**Q.** With CCOCc1cc(CN2CCN(c3cccc(C(F)(F)F)c3)CC2)c(O)c2ncccc12 as the compound, how does the Potency read?
**A.** The Potency was inconclusive: 5.01 µM [inhibitor, full curve, poor fit].
